# Results from PubChem BioAssay AID1240 (Sanford-Burnham Center for Chemical Genomics, 2008).
# Screen size: about 50,000 compounds; about 800 (1.6%) showed an effect of 50% or more. The list shows a part of the results.
# Target: Bcl-2-like protein 10 (Homo sapiens) (UniProt Q9HD36)
# Test: TR3 peptide-Bcl-B binding displacers, biochemical primary FP assay, phenotype converters (AID 1240);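 note: 0% = Bcl-B with tracer peptide and DMSO and 100% = tracer peptide lacking Bcl-B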
# Conditions: GST-Bcl-B / FITC-TR3 peptide fluorescence polarization; stronger effect = higher value; compound at 3.75 mg/L
# UniProt Q9HD36, sequence (Q9HD36 whole entry, looked up): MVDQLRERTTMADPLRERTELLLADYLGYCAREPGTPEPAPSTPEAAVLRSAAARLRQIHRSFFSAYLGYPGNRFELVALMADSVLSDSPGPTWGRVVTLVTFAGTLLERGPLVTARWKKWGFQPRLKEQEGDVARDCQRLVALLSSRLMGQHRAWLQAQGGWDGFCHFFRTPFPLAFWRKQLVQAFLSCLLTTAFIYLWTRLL
row,SMILES,displacement [%]
1,CC1CCN(C2=NC(=O)/C(=C/c3ccccc3)S2)CC1,-9.5
2,Cc1ccc(-c2cc(C(=O)O)c3cc(Br)ccc3n2)s1,-10.3
3,O=C(NNc1ccccc1)c1ccccc1,5
4,Cc1ccccc1NC(=O)c1c(NC(=O)c2ccc([N+](=O)[O-])cc2)sc2c1CCCCC2,4.4
5,COc1ccc(Cl)cc1C(=O)Nc1cc(C(F)(F)F)cc(C(F)(F)F)c1,9.1
6,O=C1c2cccc3cccc(c23)C(=O)N1CCN1CCN(S(=O)(=O)c2ccc3ccccc3c2)CC1,-9.6
7,COCCN1C(=O)C(=O)/C(=C(/O)c2ccccc2)C1c1ccccc1F (configuration not stated),-21.7
8,CON1C(=O)C(=O)N(OC)C(C)(C)C1C (configuration not stated),20.4
9,COc1ccc(CNC(=O)c2cc(Cl)ccc2OC)cc1,-14.1
10,O=C(N/N=C/c1cc(I)ccc1O)c1ccccn1,13.9
11,O=c1oc2cc(OCc3c(F)cccc3Cl)ccc2c2c1CCCC2,-14.8
12,NC12CC3CC(C1)CC(CC(=O)O)(C3)C2,8.4
13,Cc1ccc(S(=O)(=O)NC(Cc2ccccc2)C(=O)NCCc2c[nH]c3ccccc23)cc1 (configuration not stated),-7.6
14,C/C(=C\C(=O)c1ccc(Cl)cc1)Nc1ccccc1O,9.4
15,CCOc1cc(/C=C2/C(=O)NC(=O)N(c3ccc(C)cc3)C2=O)cc(Cl)c1O,-1.5
16,CCCCOC(=O)c1ccc(N2CCCCC2)cc1,-6.1
17,Oc1c(Br)cc2oc3c(c2c1/C=N/n1cnnc1)CCCC3,-7.9
18,CC(C)/C=C1\CCCCC1N(C)C(=O)NC(C)C (configuration not stated),-7.1
19,O=C(c1ccc([N+](=O)[O-])cc1Cl)N1CCc2ccccc21,-5.4
20,CC(=O)C1=C(C)Nc2cc(C(F)(F)F)ccc2S1,-13.6
21,O=C1CCCC2=C1C(c1ccccc1)Nc1ccccc1N2 (configuration not stated),-6.9
22,COc1ccc(/C=C2\C(=O)NC(=O)N(c3cccc(Br)c3)C2=O)c(C)c1,-5.7

row,SMILES,displacement [%]
1,C=CCN1C(=O)/C(=C\c2cccc(OCc3cccc4ccccc34)c2)SC1=S,15.9
2,CCOC(=O)C1=C(O)/C(=C/c2ccccc2)SC1=Nc1ccc(F)cc1,-15.5
3,Cc1c(C)c(C)c(C=C2C(=O)c3ccccc3C2=O)c(C)c1C,0.3
4,O=C(O)CCCCCN1C(=O)C(O)=C(C(=O)/C=C/c2ccccc2)C1c1ccccc1F (configuration not stated),1.5
5,Cc1ccc(S(=O)(=O)/N=C2/C=C(Sc3nnnn3-c3ccccc3)C(=O)c3ccccc32)cc1,39.8
6,O=C(Nc1ccc(S(=O)(=O)N2CCCC2)cc1)c1ccc(Cl)cc1Cl,1.2
7,CC(=O)N1c2ccccc2NC2=C(C(=O)CC(C)(C)C2)C1c1ccc(C#N)cc1 (configuration not stated),-4.5
8,COc1ccc(/C=C(\NC(=O)c2ccc([N+](=O)[O-])cc2)C(=O)NCCCN(C)C)cc1,0.4
9,O=[N+]([O-])c1ccc(-c2nc(-c3ccc(Cl)cc3)no2)cc1,-6
10,Cc1ccc(S(=O)(=O)N2CCN(C(=O)c3ccccc3)C2C(C)C)cc1 (configuration not stated),6.3
11,C/C(=N\Nc1ncc(Br)cn1)c1ccc(I)cc1,-11.3
12,O=C(O)c1ccc(NCCC(=O)c2ccccc2)cc1,-13
13,O=C1c2ccccc2C(=O)N1CC(=O)N1CCCc2ccccc21,-6
14,COc1ccc(CNC(=O)c2cc3nc(-c4ccc([N+](=O)[O-])cc4)cc(C(F)(F)F)n3n2)cc1,-6.8
15,CC(C)(C)c1ccccc1OCC(=O)Nc1ncc(S(=O)(=O)c2ccc([N+](=O)[O-])cc2)s1,4.6
16,CCN(C(=O)c1cccc(C(=O)N(CC)c2ccccc2C)c1)c1ccccc1C,13
17,CCc1ccc(S(=O)(=O)N2CCN(c3ccccc3OC)CC2)cc1,2.4
18,COc1ccc(/C=C2/SC(=S)NC2=O)cc1OCc1ccc([N+](=O)[O-])cc1,76.9
19,CC(CCc1ccccc1)Nc1cc(N2CCN(S(C)(=O)=O)CC2)ccc1[N+](=O)[O-] (configuration not stated),5.2
20,O=C(Nc1ccccc1F)c1ccc(Br)o1,12
21,COc1ccc(C(=O)N2CCN(Cc3ccncc3)CC2)cc1OC,0
22,CCOc1cc(/C=C2\C(=O)NC(=O)N(c3cc(C)cc(C)c3)C2=O)ccc1OCC(=O)O,-11

row,SMILES,displacement [%]
1,O=[N+]([O-])c1cc(S(=O)(=O)Nc2ccc(O)c(Br)c2)ccc1Cl,11.1
2,CCOC(=O)c1c(NC(=O)/C=C/c2cccs2)sc2c1CCC2,7
3,CCOc1cc(/C=C2\SC(=S)N(C)C2=O)ccc1O,-6.7
4,CCOC(=O)c1c(NC(=S)NC(=O)c2ccccc2)sc2c1CC(C)CC2 (configuration not stated),-9.6
5,O=C(Nc1ccc(Br)cc1)c1nn2c(c1Cl)NC(c1ccccc1)CC2C(F)(F)F (configuration not stated),-0.6
6,N#C/C(=C\c1ccc(Sc2ccccc2)o1)c1ccccc1,-14.9
7,CS(=O)(=O)N(CC(O)Cn1c2ccccc2c2ccccc21)c1ccc(Cl)cc1 (configuration not stated),27.6
8,CC(=O)N1c2ccc(C)cc2C2(c3ccccc3)N(C(C)=O)c3ccc(C)cc3C12c1ccccc1 (configuration not stated),13
9,COc1ccccc1N1CCN(C(=O)c2ccc(OC)c([N+](=O)[O-])c2)CC1,-5.5
10,Cc1cc(NC(=O)CSc2nc3ccccc3o2)no1,13.1
11,O=C(NC(=S)Nc1ccc(-c2nc3ccccc3[nH]2)cc1)c1ccco1,12.1
12,CCOC(=O)c1c(C)n(C)c2cc(Br)c(O)c(CN(C)C)c12,14.7
13,O=C(c1cc2nc(-c3ccc([N+](=O)[O-])cc3)cc(C(F)(F)F)n2n1)N1CCCc2ccccc21,9.6
14,CCOc1ccc(NC(=O)/C=C/c2ccc(Cl)cc2)cc1,10.1
15,COc1ccc(C(=O)Nc2ccc(C(C)C)cc2)cc1[N+](=O)[O-],8.5
16,COc1ccc(OC)c(/C=C/C(=O)c2cccc(Br)c2)c1,-12
17,COC(=O)/C=C1\Nc2cc([N+](=O)[O-])ccc2NC1=O,9.9
18,COc1ccc(Br)cc1C(=O)Nc1ccccc1C(F)(F)F,37
19,Cc1nc2cc(-c3ccc(I)cc3)nn2c(C)c1Cl,-5.5
20,O=C(O)/C(=N\O)c1cn2ccccc2n1,7.2
21,CC(C)c1ccc(CNc2cc(N3CCN(C(=O)c4ccc(Cl)cc4)CC3)ccc2[N+](=O)[O-])cc1,-10.8
22,C=CCc1ccccc1OCCn1cc(C=C2C(=O)NC(=O)NC2=O)c2ccccc21,-6.7

row,SMILES,displacement [%]
1,CC12CCC(C(=O)N(c3cccc(O)c3)C1=O)C2(C)C (configuration not stated),20.5
2,Cc1ccc(-c2csc(/C(C#N)=C/c3cccc4ccccc34)n2)cc1,6.8
3,O=C(CSc1nnc(CCCN2C(=O)c3cccc4cccc(c34)C2=O)n1-c1ccccc1)NCCCn1ccnc1,-1.9
4,O=C(O)CCSc1nc2ccc(NC(=O)c3ccccc3)cc2s1,3.1
5,O=C(/C=C/c1ccccc1)N1CCN(c2ccccc2)CC1,-8.4
6,Cc1cccc(N(CC(=O)O)S(C)(=O)=O)c1,14.1
7,Cc1ccccc1OCC(=O)O/N=C(\N)Cc1ccc(Cl)cc1Cl,1.1
8,CCOc1ccc(N2C(=O)CC(SC(=NC)Nc3ccc4c(c3)OCO4)C2=O)cc1 (configuration not stated),-6.7
9,Cc1onc(-c2ccccc2)c1C(=O)NCCCN1CCN(CCCNC(=O)c2c(-c3ccccc3)noc2C)CC1,-10.1
10,CC(C)=C1C(=O)NN(c2ccc(C)c(Cl)c2)C1=O,18.4
11,CC(C(=O)O)N1C(=O)/C(=C/c2ccc(Cl)cc2Cl)SC1=S (configuration not stated),9.1
12,O=[N+]([O-])c1cccc(CNc2ccc3c(c2)CCC3)c1,7.4
13,O=[N+]([O-])c1ccc(OCC(O)CN2CCOCC2)cc1 (configuration not stated),-4.8
14,O=C(Nc1ccccc1C(=O)Nc1ccccc1Cl)c1ccncc1,-6.4
15,COc1ccc(/C=C(\C#N)C(=O)O)cc1,6.5
16,CCc1ccccc1NC(=O)C(=O)NCc1ccc(F)cc1,6.2
17,CCOC(=O)c1c(Cl)cc(Cl)c(NC(C)=O)c1[N+](=O)[O-],0.4
18,CCCC(C)NS(=O)(=O)c1ccc(C)cc1 (configuration not stated),5.1
19,CCOC(=O)Oc1ccc2c3c(c(=O)oc2c1)CCC3,-1.2
20,Cc1ccnc(N=Cc2ccc(C=Nc3cc(C)ccn3)cc2)c1,-2.9
21,O=C(Nc1sc2c(c1C(=O)Nc1ccccc1)CCC2)c1ccccc1Br,4.8
22,Cc1ccc(S(=O)(=O)N2CCN(Cc3ccccc3)CC2)cc1[N+](=O)[O-],8.5

row,SMILES,displacement [%]
1,COc1cccc(/C=C2/C=C(c3ccc(C)cc3)OC2=O)c1OC,3.6
2,CC(=O)Nc1ccc(NS(=O)(=O)c2ccc(F)cc2)cc1,-7.3
3,CC(Oc1cccc(Cl)c1)C(=O)Nc1ccc([N+](=O)[O-])cc1Cl (configuration not stated),-9.2
4,CCOC(=O)c1ccc(NC(=O)COc2ccc(Cl)cc2Br)cc1,-16.3
5,Cc1ccc(S(=O)(=O)N(CC(=O)N/N=C/c2ccc(F)cc2)c2cccc3cccnc23)cc1,-1.7
6,COCCCN1C(=O)C(=Cc2c(NCCc3ccccc3)nc3c(C)cccn3c2=O)SC1=S,-14.7
7,COC(=O)C1=C(C)NC(=O)CC1c1ccc(Cl)c(Cl)c1 (configuration not stated),9.1
8,Cc1ccc(C)n1-c1cccc2cccnc12,35.7
9,Cc1ccc(/C=N/NC(=O)CN(c2cccc(C(F)(F)F)c2)S(=O)(=O)c2ccccc2)c(C)c1C,4.5
10,O=C1c2ccccc2C(=Nc2cc([N+](=O)[O-])ccc2O)C1c1ccc2ccccc2c1 (configuration not stated),1.2
11,NS(=O)(=O)c1ccc(NC(=O)COc2ccc(Cl)cc2)cc1,6.9
12,CNS(=O)(=O)c1ccc(N/C=C(\C=O)c2nc3cc(Cl)ccc3o2)cc1,12.6
13,COc1ccc(-n2c(C)c([N+](=O)[O-])c3ccc(O)c(CN(CCO)CCO)c32)cc1,19.7
14,CC12c3ccccc3C(c3ccccc31)C1C(=O)N(c3ccc(I)cc3)C(=O)C12 (configuration not stated),-3.8
15,O=c1oc2cc(OCc3c(F)cccc3Cl)ccc2cc1-c1ccccn1,8.8
16,O=C1NC(=S)S/C1=C/c1ccc(Sc2ccccc2)o1,-90
17,COc1ccccc1C1NC(=O)CS1 (configuration not stated),-9.1
18,C/C(=N\N1CCN(Cc2ccc(Cl)cc2)CC1)c1ccc(O)cc1,-6.9
19,O=C(NN1C(=O)/C(=C/c2ccc(O)c(O)c2)SC1=S)c1ccccc1Br,73
